Assay results: the supplement of paper PMC9433436
± gives the standard deviation of the averaged measurements. In all, about 4,100 sequences were measured (“relative kcat/Km (krel) vs genomic leader AAAGAU”: median about 1.7, highest 2% from about 6.5 on). The entries are a selection whose mix differs from that of the whole data set.

Target: T1, E. coli RNase P holoenzyme (M1 P RNA + rnpA protein) (UniProt P0A7Y8)
T1 sequence: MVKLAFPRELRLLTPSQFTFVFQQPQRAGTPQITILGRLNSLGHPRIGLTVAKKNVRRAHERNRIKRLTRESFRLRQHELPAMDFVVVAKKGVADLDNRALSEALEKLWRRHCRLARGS
Experiment: relative kcat/Km (krel) vs genomic leader AAAGAU (relative (reference leader = 1)); higher = faster RNase P cleavage
Description: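 HTS-Kin: a pool of ptRNA-Met (21C construct) with all 4096 combinations of 5' leader nucleotides N(-6) to N(-1) was processed in vitro by E. coli RNase P (P RNA + rnpA/C5 protein) under multiple-turnover conditions at 37 C, pH 8, 17.5 mM MgCl2. Residual substrate was Illumina-sequenced at several fractions reacted, and relative kcat/Km (krel) was computed by internal competition kinetics, calibrated to the genomic leader (AAAGAU = 1). The listed hexamer is the varied N(-6)..N(-1) leader (DNA letters), and it sits between a fixed 5' stem-loop flank (GCAUGCACGAAAGUGCGUGCUAUGAA) and the mature tRNA-Met starting GGCUACGUAGCUCAGUUGG. Two technical replicates are averaged.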

[1] = fraction of substrate reacted: ~9-10% (9.79% repeat 1, 9.1% repeat 2)
[2] = fraction of substrate reacted: ~13-16% (15.68% repeat 1, 13.17% repeat 2)
[3] = fraction of substrate reacted: ~26-29% (28.66% repeat 1, 26.4% repeat 2)

Sequence	relative kcat/Km [1]	relative kcat/Km [2]	relative kcat/Km [3]
CAGAGA	1.07 ± 0.6	1.55 ± 0.75	3.62 ± 1.4
AACCAT	2.62 ± 1.1	2.62 ± 0.3	4.77 ± 2
ACCCTG			1.17 ± 0.53
CATCTC	1.8 ± 0.31	2.05 ± 0.32	3.05 ± 1.3
CGTCAG	0.776 ± 0.25	1.34 ± 0.28	3.11 ± 0.5
ATCGTG			1.3 ± 0.35
ATCGCA	3.36 ± 1	4.58 ± 0.2	6.35 ± 2.8
TGGGCA	0.827 ± 0.12	0.859 ± 0.18	1.15 ± 0.75
ATTTAG		2.526 ± 0.01	3.82 ± 0.68
CGGCTA	1.21 ± 0.35	1.11 ± 0.062	0.879 ± 0.1
ATGTAG	1.92 ± 1.1	1.43 ± 0.22	2.74 ± 0.76
TACAAG	1.6 ± 0.23	2.38 ± 0.42	4.49 ± 1.9
TGGCAA		0.681 ± 0.35	0.838 ± 0.48
ATGACA	1.94 ± 1.6	1.85 ± 0.61	2.06 ± 0.28
AAAAAC	1.05 ± 0.17	1.97 ± 1	1.67 ± 0.46
ACATTT	2.32 ± 1.2	2.97 ± 0.19	4.45 ± 1.8
AGTCCG	1.69 ± 1.2	0.756 ± 0.66	2.06 ± 0.97
GTAGGA	0.316 ± 0.27	1.2 ± 0.63	
TCCCCC	2.31 ± 1.4	3 ± 0.6	3.79 ± 1.1
TCGTCT	3 ± 0.94	2.99 ± 1.4	4.35 ± 1.2
TGGCTA	0.633 ± 0.28	1.26 ± 0.15	1.41 ± 0.82
TAAGTA	1.56 ± 1.1	1.45 ± 0.65	1.48 ± 0.18
TGCCAA	3.18 ± 1.1	2.55 ± 0.62	4.09 ± 1
CCGAAC	1.62 ± 0.75	2.83 ± 1.4	4.03 ± 1.8
TCTACC	1.9 ± 0.076	1.85 ± 0.06	2.5 ± 0.46
AAGAGA	2.62 ± 1.4	1.51 ± 0.84	2.52 ± 0.37

Sequence	relative kcat/Km [1]	relative kcat/Km [2]	relative kcat/Km [3]
TACGTG			1.61 ± 0.11
TTGCGC	1.02 ± 0.65	1.52 ± 0.27	1.65 ± 0.45
TCCTGG	0.344 ± 0.27	0.715 ± 0.34	1.15 ± 1.1
TTCTCT	4.43 ± 1.1	6.17 ± 1.4	8.57 ± 3.4
AAGATC	1.45 ± 0.21	1.835 ± 0.012	1.78 ± 0.69
AACTCA	2.48 ± 0.46	2.81 ± 0.56	4.08 ± 1.8
GTGCTT	1.55 ± 0.22	1.02 ± 0.63	1.27 ± 0.21
CGGTCT		1.03 ± 0.31	0.898 ± 0.63
TCGATG		0.916 ± 0.4	3.29 ± 0.25
TCCCTC	3.19 ± 1.3	3.57 ± 0.32	5.01 ± 1.9
AGGGAT	0.949 ± 0.63		
CGATGC	2.88 ± 0.51	2.7 ± 1.8	4.03 ± 1.4
CAAGGA			0.779 ± 0.36
GGTGCA			0.609 ± 0.051
TATCGG		0.363 ± 0.061	1.3 ± 0.3
AACACC	3.17 ± 1.4	2.94 ± 0.64	4.21 ± 1.6
GGGCCG			0.42 ± 0.31
TCCCAG	2.48 ± 1.3	2.06 ± 0.1	4.74 ± 1.4
CTTAAT	2.56 ± 0.13	3.41 ± 0.8	5.38 ± 2.6
AATGCT	1.63 ± 1.4	0.886 ± 0.5	0.983 ± 0.32
TTTACA	2.51 ± 2.2	2.41 ± 0.58	2.93 ± 0.91
CATTGC	3.51 ± 1.1	4.2 ± 0.93	5.82 ± 2.3
GTGACA	0.872 ± 0.022	1.16 ± 0.38	1.53 ± 0.48
CTGTAC	3.93 ± 2.2	3.656 ± 0.015	4.79 ± 1.1
TTACGC	2.51 ± 0.4	3.25 ± 1.1	4.77 ± 2
CTCATC	3.63 ± 1	4.57 ± 0.43	6.8 ± 2.4

Sequence	relative kcat/Km [1]	relative kcat/Km [2]	relative kcat/Km [3]
CACGCT	1.83 ± 0.24	2.25 ± 0.6	3.03 ± 0.94
GTTGGA	0.956 ± 0.25	2 ± 0.62	
GCCTCC	2.78 ± 1.2	3.32 ± 0.14	5.33 ± 1.8
TGGACG			0.596 ± 0.049
ATGCGC	0.675 ± 0.15	0.791 ± 0.3	1.11 ± 0.2
GGACCG			0.612 ± 0.45
AAGCTA	1.69 ± 0.35	1.593 ± 0.002	1.38 ± 0.4
GGCCAA	2.48 ± 1.8	1.68 ± 0.33	3.18 ± 0.54
AATCTT	1.82 ± 0.87	1.44 ± 0.29	2.29 ± 0.94
CATCAG	2.04 ± 1.4	1.57 ± 0.73	2.82 ± 0.74
CCTGCC	1.89 ± 0.58	1.842 ± 0.015	2.36 ± 1.3
TCTTGT	0.68 ± 0.17	1.94 ± 1.8	2.42 ± 2.2
CTCTCT	4.48 ± 1	4.84 ± 1.6	7.22 ± 3
TCTATT	1.94 ± 0.36	2.368 ± 0.0098	3.51 ± 1.6
GCCTTG		0.203 ± 0.08	1.62 ± 0.39
TATCCG			1.17 ± 0.061
ATGTTT	2.04 ± 0.38	1.82 ± 0.24	2.49 ± 0.97
TAGCAG			2.36 ± 0.19
CTCGCA	4.01 ± 1.4	4.94 ± 0.48	6.71 ± 2.1
GATAGT	0.65 ± 0.31		
GCATTG			1.07 ± 0.15
ACGTAC	3.38 ± 1.4	4.04 ± 0.39	5.9 ± 2
TTTGAT	0.799 ± 0.12	1.01 ± 0.025	1.39 ± 0.26
CAATGA	2.38 ± 0.82	2.67 ± 0.87	4.37 ± 1.6
CGCTAA	3.07 ± 0.43	3.99 ± 1.2	5.96 ± 2.3
TCAGTA	1.24 ± 1.1	1.27 ± 0.45	1.99 ± 0.47

Sequence	relative kcat/Km [1]	relative kcat/Km [2]	relative kcat/Km [3]
TGCTAT	2.93 ± 0.94	2.69 ± 0.56	3.79 ± 1.5
ATGTAT	2.32 ± 0.64	2.78 ± 0.84	4.4 ± 1.9
TCCGTC	2.65 ± 1.1	3.6 ± 0.8	5.41 ± 1.8
GCAGCT			0.729 ± 0.21
CATCGT			1.54 ± 1.2
GCCGGT			2.64 ± 2.5
GTCAAC	4.47 ± 1.7	5.05 ± 1.3	
TAATAT	3.78 ± 1.4	5.05 ± 0.28	7.45 ± 3.4
CCTAGC	1.61 ± 0.43	2.18 ± 0.98	2.91 ± 1
CATGTC	1.46 ± 0.49	1.67 ± 0.4	1.74 ± 0.59
CCCCGT			1.1 ± 0.098
AAACGC		1.77 ± 0.37	1.66 ± 0.27
ACTACA	1.5 ± 0.072	1.47 ± 0.021	1.67 ± 0.56
AGGTAA	1.01 ± 0.44	1.09 ± 1	1.2 ± 0.29
GTTCGC	3.05 ± 0.95	3.41 ± 0.8	4.63 ± 1.6
CGACGA	2.51 ± 0.82	2.93 ± 0.75	4.27 ± 1.3
GCGTTC	1.8 ± 0.31	1.35 ± 0.18	2.35 ± 0.77
CAGACA	2.14 ± 0.6	1.9 ± 0.48	2.14 ± 0.51
CAGCAG	1.82 ± 1.6		2.17 ± 0.34
AGGCAT	1.34 ± 0.18	2.016 ± 0.015	2.37 ± 0.98
ACCCAT	2.43 ± 0.83	2.95 ± 0.91	5.63 ± 2.4
TGTATA	2.17 ± 0.21	2.75 ± 0.05	4.46 ± 1.7
AACCTT	2.69 ± 0.62	3.09 ± 0.28	3.96 ± 1.6
AAGAGC	2.01 ± 1.4	1.51 ± 1	1.44 ± 0.59
CGGAGT	0.901 ± 0.67		0.911 ± 0.33
ATACAA	1.75 ± 1.1	1.77 ± 0.56	2.89 ± 0.85
